Results published in PubChem BioAssay AID1030 (National Center for Advancing Translational Sciences (NCATS), 2008).
The whole screen tested about 220,000 compounds, of which about 16,000 (7.3%) were called active. The inconclusive results got no clear call from the source; some entries with a clear call stand among them for comparison. The call rests on the fitted dose curve; in most records, active means well fitted inhibition curve with a large enough effect (not every such curve was filed as active); inconclusive means small, poorly fitted or top-dose-only effect, or another doubt; inactive means no such curve, though single readings can be large or run the other way. Where the call is inconclusive, the potency comes from a doubtful curve fit.

Target: Aldehyde dehydrogenase 1A1 (Homo sapiens) (UniProt P00352)
Chain of UniProt P00352 (P00352 whole entry, looked up): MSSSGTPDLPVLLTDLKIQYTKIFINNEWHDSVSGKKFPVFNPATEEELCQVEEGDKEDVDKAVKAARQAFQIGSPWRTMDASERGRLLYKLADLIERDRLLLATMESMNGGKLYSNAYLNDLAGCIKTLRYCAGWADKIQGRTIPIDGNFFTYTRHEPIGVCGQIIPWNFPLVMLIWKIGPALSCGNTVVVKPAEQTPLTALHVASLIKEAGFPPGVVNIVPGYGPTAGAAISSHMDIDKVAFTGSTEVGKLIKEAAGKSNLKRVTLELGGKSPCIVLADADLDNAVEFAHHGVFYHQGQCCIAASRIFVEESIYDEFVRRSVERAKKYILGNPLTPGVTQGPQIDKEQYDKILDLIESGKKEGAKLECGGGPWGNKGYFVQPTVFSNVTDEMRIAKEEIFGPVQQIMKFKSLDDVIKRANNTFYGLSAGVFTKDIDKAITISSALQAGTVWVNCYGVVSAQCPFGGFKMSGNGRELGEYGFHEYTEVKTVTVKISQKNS
Test: qHTS Assay for Inhibitors of Aldehyde Dehydrogenase 1 (ALDH1A1);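 on activity, negative = inhibition: plate controls were no enzyme wells and a reference inhibitor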
Conditions: Purified ALDH1A1, NADH fluorescence, propionaldehyde substrate; series mostly up to 75.3 µM; activity, negative = inhibition: at the top concentration
Potency means the concentration at half of the fitted maximal effect; tags describe the fitted curve by direction and shape.

Potency, inconclusive:
Cc1ccc(C(=O)Oc2oc(-c3ccco3)nc2C=Nc2ccc(Cl)cc2)cc1 22.4 µM [inhibitor, partial curve], CCOC(=O)C1CCCN(c2c(C(=O)c3ccccc3)cnc3ccccc23)C1 (stereo unspecified) 28.2 µM [inhibitor, single point], N#Cc1cccc(-c2nnc(SCc3ccccc3C#N)o2)c1 28.2 µM [inhibitor, single point], Cc1cccc(NC(=O)/C(=C\c2ccco2)NC(=O)c2ccccc2)c1 37.7 µM [inhibitor, single point], CCCn1nc(C(=O)OCC(=O)Nc2ncc(Cl)c(C)c2Cl)c2ccccc2c1=O 35.5 µM [inhibitor, single point], Cc1ccc2c(c1)c1ncnc(N3CCc4ccccc4C3)c1n2C 35.5 µM [inhibitor, single point], COC(=O)C1(C)C=C2C(=C(c3ccccc3)C(=O)C2C)CN1 (stereo unspecified) 35.5 µM [inhibitor, single point], CNc1nc(Nc2ccc(C(C)=O)cc2)nc(OC(C(F)(F)F)C(F)(F)F)n1 39.8 µM [inhibitor, single point], Cc1ccccc1OCCNc1ccc(C(F)(F)F)cc1[N+](=O)[O-] 0.0158 µM [inhibitor, full curve], COc1ccc(OC)c(/C=N/NC(=O)CNC(=O)c2ccc(S(=O)(=O)N3CCCC3)cc2)c1 31.6 µM [inhibitor, partial curve], Cc1c(C(=O)OCC(=O)N2c3ccccc3CC2C)oc2ccccc12 (stereo unspecified) 44.7 µM [inhibitor, single point], COc1ccc(-c2ccc(S(=O)(=O)N3CCOCC3)cc2)cc1 20 µM [inhibitor, single point], COc1ccc(C(=O)C2=NN(C(C)=O)CC2c2ccco2)cc1 (stereo unspecified) 39.8 µM [inhibitor, single point], Cc1nnc(SCCN2CCOCC2)n1C 28.2 µM [inhibitor, single point], COc1ccc(NC(=S)NCc2ccc3c(c2)OCO3)cc1 39.8 µM [inhibitor, single point], FC(F)(F)c1ccc2c(c1)C1C=CCC1C(c1ccncc1)N2 (stereo unspecified) 39.8 µM [inhibitor, single point], Cc1c(N=Cc2ccc(-c3ccc(Cl)cc3)o2)c(=O)n(-c2ccccc2)n1C 35.5 µM [inhibitor, single point], C/C(=N/NC(=O)c1sc(NS(=O)(=O)c2ccc(C)cc2)nc1C)c1sc(N)nc1C 35.5 µM [inhibitor, single point], Cc1ccccc1NC(=S)NCc1ccc(Cl)cc1 39.8 µM [inhibitor, single point], Cc1ccccc1C=Nc1ccccc1C(N)=O 31.6 µM [inhibitor, partial curve], CCOC(=O)c1c(NC(=O)c2ccco2)n(C2CCCCC2)c2nc3ccccc3nc12 25.1 µM [inhibitor, partial curve], O=C(Nc1cccnc1)c1sc2cccc(F)c2c1Cl 39.8 µM [inhibitor, single point], N=c1c2c(-c3ccccc3)c(-c3ccccc3)oc2ncn1CCN1CCOCC1 15.8 µM [inhibitor, partial curve], N#CCCn1c(=O)c(-c2ccc(Cl)cc2)nc2cnc(Oc3ccccc3)nc21 35.5 µM [inhibitor, single point], COc1ccc(/C=C2/N=C3CCCCCN3C2=O)cc1 39.8 µM [inhibitor, single point], CCOC(=O)CCc1c(C)c2ccc(OCc3nn[nH]n3)cc2oc1=O 28.2 µM [inhibitor, partial curve], CC(C)Oc1cccc(-c2cc(C(=O)N3CCN(S(C)(=O)=O)CC3)c3ccccc3n2)c1 22.4 µM [inhibitor, partial curve], CC1CCN(C(=O)CSc2nncn2-c2ccccn2)CC1 39.8 µM [inhibitor, single point], Cc1nccn1CCCNCc1c(C(=O)N2CCCCCCC2)nc2ccc(Cl)cn12 31.6 µM [inhibitor, single point], C=CCN(C(=O)Nc1ccc2oc(C)nc2c1)c1ccccc1 35.5 µM [inhibitor, single point], O=C(c1ccco1)N1CCN(C(=O)c2cc(-c3ccccn3)nc3ccc(Cl)cc23)CC1 2.24 µM [inhibitor, full curve], Cc1ccc(/C=C2\C(=O)ON=C2c2ccccc2)o1 1.12 µM [inhibitor, full curve], O=C(OCN1C(=O)c2ccccc2C1=O)/C(=C\c1ccco1)NC(=O)c1ccccc1 44.7 µM [inhibitor, single point], Cc1ccc(C(=O)c2ccccc2C(=O)OCC(=O)Nc2ccc(SC(F)F)cc2)cc1 37.7 µM [inhibitor, single point], COc1ccc(-n2c(Cc3cccn3C)nnc2SCC(=O)Nc2cccc(OC)c2)cc1 25.1 µM [inhibitor, partial curve], O=C(COC(=O)Cn1cnc2ccccc2c1=O)NCC12CC3CC(CC(C3)C1)C2 39.8 µM [inhibitor, single point], COc1ccnc(N=CNOCc2cccc(C(F)(F)F)c2)c1C#N 28.2 µM [inhibitor, single point], COC(=O)c1[nH]c2cccc(OC)c2c1NC(=O)CCN1CCN(c2ccccc2OC)CC1 31.6 µM [inhibitor, single point], O=C(NC1CC1)c1ccc2c(Cl)c3c(nc2c1)CCCC3 25.1 µM [inhibitor, single point], N#CC(C#N)=NNc1ccc2cn[nH]c2c1 3.16 µM [inhibitor, single point], CCN(CC)CCN1C(=O)c2ccccc2NC1c1ccc(C)cc1 (stereo unspecified) 23.8 µM [inhibitor, partial curve], O=C1C2C(C(=O)N1/N=C/c1cc([N+](=O)[O-])ccc1O)C1C=CC2C12CC2 (stereo unspecified) 22.4 µM [inhibitor, partial curve], O=C(CSc1nnc(-c2ccco2)o1)NC(=O)C1COc2ccccc2O1 (stereo unspecified) 39.8 µM [inhibitor, single point]

Potency, active:
CCCN1C(=O)/C(=c2\sc3nc(=O)c(Cc4ccc(C)cc4)nn3c2=O)c2ccccc21 6.31 µM, COCCn1c(C)cc(C2=NNC(=Nc3ccccc3F)SC2)c1C 17.8 µM, O=c1nc2cccc3c2=c(/c1=C(\O)c1ccccc1)c1ccccc1c3=O 0.631 µM, Cc1cc(/C=C2/NC(=O)N(Cc3ccccc3F)C2=O)c(C)n1C(C)C 2 µM, O=C(Cc1ccc(Cl)cc1Cl)OCC(=O)N1CCN(C(=O)c2ccco2)CC1 14.1 µM, Nc1nc(SC2c3cccc4cccc(c34)C2NS(=O)(=O)c2ccccc2)n[nH]1 (stereo unspecified) 14.1 µM, CCNc1ccccc(C(=O)/C=C/c2ccc3c(c2)OCO3)c1=O 10 µM, Cc1cc(C)c2cc(C(c3nnnn3C3CCCC3)N3CCOCC3)c(=O)[nH]c2c1 (stereo unspecified) 14.1 µM, COc1ccc(/C=N/NS(=O)(=O)c2ccccc2)cc1OS(=O)(=O)c1ccc(C)cc1 7.08 µM, O=C(Nc1cc(S(=O)(=O)N2CCOCC2)ccc1N1CCCC1)c1ccc2c(c1)S(=O)(=O)c1ccccc1C2=O 2.24 µM, O=C(NNC(=S)Nc1ccc(Cl)cc1Cl)c1ccncc1 3.16 µM, CCN(CC)C(=O)c1sc(NC(=O)c2ccncc2)c(C(=O)OC)c1C 14.1 µM, O=C(COc1ccccc1)N1CCN(c2ncnc3c2cnn3-c2ccccc2)CC1 7.08 µM, CCOC(=O)c1ccc(N2C(=O)CC(N(C)Cc3ccccc3)C2=O)cc1 (stereo unspecified) 11.2 µM

activity, negative = inhibition, inactive:
Cn1cccc1C(=O)N1CCC[C@@]2(CCN(Cc3cc(C(F)(F)F)cc(C(F)(F)F)c3)C2)C1 4.41%, C=CCN1CCN(C(CC(C)C)c2nnnn2CCOC)CC1 (stereo unspecified) -4.84%, CN(C)S(=O)(=O)c1ccc(NC(=O)c2cccnc2)cc1 -2.5%, CC(C)Cc1nc(NCCN2CCOCC2)c(C#N)c2c1COC(C)(C)C2 -1.17%, O=C1c2cccc3c([N+](=O)[O-])ccc(c23)C(=O)N1c1nccs1 -12.9%, CCOC(=O)c1c(C)c(C(=O)Nc2cc(F)ccc2F)c(C)n1C -5.88%, O=C(O)CNC(=O)c1ccc(OC(F)F)cc1 6.48%, O=C(c1ccc2nc[nH]c2c1)N1CCc2ccccc2C1 1.77%, Fc1ccc(-c2cc(-c3ccccc3)nc(-n3cccn3)n2)cc1 1.43%, CCOc1ccc(NC(=S)NC(=O)/C=C/c2ccc(OC)c(OC)c2)c([N+](=O)[O-])c1 -3.23%, CC(=O)Oc1cccc(C)c1 3.79%, Cc1cccc(NC(=O)c2sc(NC(=O)c3ccco3)c(C#N)c2C)c1C 8.21%, NC(=O)CCCCC(N)=O -6.7%, Cn1cc(CNC(=O)/C=C/c2ccc(Cl)cc2)cn1 2.55%
